Experimental findings from publication PMC4336329 (PLoS ONE, 2015) are described below.

In all, about 310,000 compounds went through this assay and about 2,200 (0.71%) showed an effect of 50% or more. Effects have a minus sign here. The list shows a part of the results.

The assay deals with human ether-à-go-go-related gene (hERG) potassium channel (human, UniProt Q12809). The assay can be described thus: primary screen, population patch clamp on CHO cells stably expressing hERG.
human ether-à-go-go-related gene (hERG) potassium channel, sequence (Q12809 whole entry, looked up): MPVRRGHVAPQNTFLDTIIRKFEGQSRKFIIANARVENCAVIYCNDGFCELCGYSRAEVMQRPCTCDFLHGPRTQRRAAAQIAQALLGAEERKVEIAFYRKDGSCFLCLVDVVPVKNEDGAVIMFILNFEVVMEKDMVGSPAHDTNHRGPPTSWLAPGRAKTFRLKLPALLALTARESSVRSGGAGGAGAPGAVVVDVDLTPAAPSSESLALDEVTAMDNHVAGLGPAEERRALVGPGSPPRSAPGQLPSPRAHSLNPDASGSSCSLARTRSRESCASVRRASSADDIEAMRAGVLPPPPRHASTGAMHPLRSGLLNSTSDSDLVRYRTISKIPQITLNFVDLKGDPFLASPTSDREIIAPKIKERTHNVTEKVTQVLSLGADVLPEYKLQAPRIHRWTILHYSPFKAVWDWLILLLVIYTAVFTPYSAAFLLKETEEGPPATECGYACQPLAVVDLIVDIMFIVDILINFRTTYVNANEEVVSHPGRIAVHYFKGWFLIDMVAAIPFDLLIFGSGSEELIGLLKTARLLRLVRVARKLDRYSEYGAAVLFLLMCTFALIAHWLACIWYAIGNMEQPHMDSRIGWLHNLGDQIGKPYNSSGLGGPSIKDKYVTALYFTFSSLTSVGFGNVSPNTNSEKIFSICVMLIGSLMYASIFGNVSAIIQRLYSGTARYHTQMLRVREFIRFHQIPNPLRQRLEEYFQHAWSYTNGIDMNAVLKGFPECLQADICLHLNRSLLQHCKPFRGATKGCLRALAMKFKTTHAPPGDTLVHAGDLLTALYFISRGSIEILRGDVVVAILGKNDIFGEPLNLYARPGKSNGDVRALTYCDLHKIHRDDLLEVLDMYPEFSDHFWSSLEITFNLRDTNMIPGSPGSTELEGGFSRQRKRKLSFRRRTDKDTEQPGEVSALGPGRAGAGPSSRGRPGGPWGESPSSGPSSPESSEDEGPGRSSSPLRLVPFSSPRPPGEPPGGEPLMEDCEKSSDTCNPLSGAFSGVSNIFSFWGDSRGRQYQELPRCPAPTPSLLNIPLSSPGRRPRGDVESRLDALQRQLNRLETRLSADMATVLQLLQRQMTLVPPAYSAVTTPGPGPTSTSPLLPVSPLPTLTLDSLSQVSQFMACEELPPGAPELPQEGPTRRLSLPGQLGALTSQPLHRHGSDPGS
Regarding `CN(C(=O)c1cccc(NC(=O)c2ccccc2)c1)C1CCCCC1`, the “hERG current change (%, negative = inhibition) at 1uM” value is 5.36%.

On to `Cc1ccc2nc(N3CCN(C)CC3)c(C=O)c(=O)n2c1`, for which the “hERG current change (%, negative = inhibition) at 1uM” value is 2.08%.

Take `COc1ccccc1NS(=O)(=O)c1cccc(C(=O)NCc2ccco2)c1`: the “hERG current change (%, negative = inhibition) at 1uM” value was 8.36%.

Regarding `CN1CCN(C(=O)/C=C/c2ccc(C#N)cc2)CC1`, the “hERG current change (%, negative = inhibition) at 1uM” value was -12%.

On to `CCc1cc(=O)oc2cc(OS(C)(=O)=O)ccc12`, for which the “hERG current change (%, negative = inhibition) at 1uM” value is on record as 4.93%.

`O=C(CSc1nc2ncc(Cl)cc2[nH]1)Nc1ccccc1-c1ccccc1`: the “hERG current change (%, negative = inhibition) at 1uM” value stood at 15%.

`COc1ccc(NC(=O)CC2C(=O)N(Cc3cccs3)C(=S)N2C(C)C)cc1` (centres unmarked): the “hERG current change (%, negative = inhibition) at 1uM” value amounted to 8.74%.

Regarding `OCCC1CN(Cc2ccncc2)CCN1C1CCCC1` (centres unmarked), the “hERG current change (%, negative = inhibition) at 1uM” value was determined as 10.6%.

Take `CC1CC(C)CN(CCCNC(=O)c2ccc(CS(=O)(=O)Cc3cccc(Cl)c3)o2)C1` (centres unmarked): the “hERG current change (%, negative = inhibition) at 1uM” value was -33.9%.

Regarding `COc1ccc(C)cc1NC(=O)c1cccc(C(=O)Nc2cc(C)ccc2OC)n1`, the “hERG current change (%, negative = inhibition) at 1uM” value is recorded as -0.189%.

For the molecule `COc1cc(CNn2cn[nH]c2=S)cc(Cl)c1OCc1ccc(F)cc1`, the “hERG current change (%, negative = inhibition) at 1uM” value stood at 3.52%.

As for `COc1ccc(-n2nc(C)c3c(=O)c4c([nH]c32)CCCC4)cc1`, the “hERG current change (%, negative = inhibition) at 1uM” value amounted to 12.4%.

Regarding `CC(=O)NC(C)Cc1cn(Cc2ccccc2)c2ccccc12` (centres unmarked), the “hERG current change (%, negative = inhibition) at 1uM” value came out at 17.7%.

`CCN(CC)S(=O)(=O)c1ccc(-c2nnc(SCC(=O)Nc3ccc(OC)c(OC)c3)o2)cc1`: the “hERG current change (%, negative = inhibition) at 1uM” value stood at 4.51%.

In the case of `CCN1CCN(Cc2ccc(NC(=O)c3ccc(C)c(NC(=O)N4CCNC4=O)c3)cc2C(F)(F)F)CC1.O=C(O)C(F)(F)F`, the “hERG current change (%, negative = inhibition) at 1uM” value was 6.44%.

For the molecule `COc1c(S(=O)(=O)NCCCN2CCOCC2)ccc(Cl)c1Cl`, the “hERG current change (%, negative = inhibition) at 1uM” value was 9.39%.

With `CC(C)CC(c1nnnn1C(C)(C)C)N1CCN(C2CCCC2)CC1.Cl` (centres unmarked), the “hERG current change (%, negative = inhibition) at 1uM” value was 6.21%.

Consider `Cc1nn(CC(=O)Nc2sc3c(c2C#N)CCC(C(C)(C)C)C3)c(C)c1[N+](=O)[O-]` (centres unmarked), for which the “hERG current change (%, negative = inhibition) at 1uM” value is listed as 5.57%.

With `N#C/C(=C\C1=C(N2CCOCC2)C(=C\c2ccc(Cl)cc2)/CC1)C(=O)Nc1ccccc1F`, the “hERG current change (%, negative = inhibition) at 1uM” value stood at 8.26%.

Turning to `CCOCCn1cnc2sc(C(=O)NCCCN3CCOCC3)c(C)c2c1=O`, the “hERG current change (%, negative = inhibition) at 1uM” value stood at 14%.

`CC(=O)Nc1ccc(NC(=S)NC(=O)C2CC2)cc1`: the “hERG current change (%, negative = inhibition) at 1uM” value turned out to be 15.5%.

Turning to `O=S(=O)(Nc1cccc(-c2ccc(N3CCOCC3)nn2)c1)c1cc(Cl)ccc1Cl`, the “hERG current change (%, negative = inhibition) at 1uM” value is recorded as -2.41%.

`Cn1cc(C(c2ccccn2)c2cn(C)c3ccccc23)c2ccccc21`: the “hERG current change (%, negative = inhibition) at 1uM” value is on record as 12.5%.

Consider `O=S(=O)(c1ccc(=S)[nH]c1)N1CCOCC1`, for which the “hERG current change (%, negative = inhibition) at 1uM” value is on record as 7.56%.

In the case of `Cc1ccc(NC(=O)c2cc(C)nc3ccccc23)c(Br)c1`, the “hERG current change (%, negative = inhibition) at 1uM” value came to 8.32%.

On to `CC(C)(C)NS(=O)(=O)c1ccc(-c2csnn2)s1`, for which the “hERG current change (%, negative = inhibition) at 1uM” value turned out to be 1.9%.

Take `Br.CCOc1ccccc1OCC(=O)NN1Cc2ccccc2C1=N`: the “hERG current change (%, negative = inhibition) at 1uM” value was -45.1%.

With `COC(=O)CC1COc2ccccc2N1C(=O)c1cccc(C(F)(F)F)c1` (centres unmarked), the “hERG current change (%, negative = inhibition) at 1uM” value stood at 16.3%.

`CC1N=C(c2ccccc2)c2cc(Br)ccc2NC1=O` (centres unmarked): the “hERG current change (%, negative = inhibition) at 1uM” value is recorded as -3.63%.

As for `CCOC(=O)c1ccc(N2CCN(C(C)=O)CC2)c(NC(=O)c2cccnc2)c1`, the “hERG current change (%, negative = inhibition) at 1uM” value stood at 10%.

`CC(=O)N1N=C(c2ccncc2)OC12CCCCC2`: the “hERG current change (%, negative = inhibition) at 1uM” value was 7.83%.

`Cc1ccc(S(=O)(=O)c2c[nH]c3cc4c(cc3c2=O)OCO4)cc1`: the “hERG current change (%, negative = inhibition) at 1uM” value was found to be 9.83%.

For `Cc1ccc(-n2c(C)cc(C(=O)COC(=O)c3ccc[nH]c3=O)c2C)cc1C`, the “hERG current change (%, negative = inhibition) at 1uM” value is reported as 12.5%.

As to `CCCCCn1c(Sc2ncccn2)nc2c1c(=O)[nH]c(=O)n2C`, the “hERG current change (%, negative = inhibition) at 1uM” value is 4.65%.

In the case of `COc1ccc(N(C(=O)CNC(=O)c2ccco2)C(C(=O)NC2CCCC2)c2ccc(C)o2)cc1` (centres unmarked), the “hERG current change (%, negative = inhibition) at 1uM” value is given as 8.92%.

As for `CN(CC(=O)Nc1cccnc1)S(=O)(=O)c1ccc(Br)cc1`, the “hERG current change (%, negative = inhibition) at 1uM” value worked out at 3.03%.

Take `COc1ccc(N(CC(=O)Nc2cccc(N(C)S(C)(=O)=O)c2)S(=O)(=O)c2ccc(C)cc2)cc1`: the “hERG current change (%, negative = inhibition) at 1uM” value is 17.3%.

Turning to `O=C(O)c1ccc2c(c1)C(=O)N(Cc1ccc3c(c1)OCO3)C2=O`, the “hERG current change (%, negative = inhibition) at 1uM” value amounted to 1.76%.

In the case of `CCOc1cccc(C(=O)Nc2ccc3oc(Cc4ccc(Cl)cc4)nc3c2)c1`, the “hERG current change (%, negative = inhibition) at 1uM” value is 4.26%.

For the molecule `N=c1c2c3c(sc2nc2n1CCCCC2)CCCCC3`, the “hERG current change (%, negative = inhibition) at 1uM” value was -9.94%.

On to `Cn1c(=O)n(C)c2cc(S(=O)(=O)NCCOCCO)ccc21`, for which the “hERG current change (%, negative = inhibition) at 1uM” value is 8.12%.

For the molecule `COc1ccccc1N1CCN(Cc2ccc3c(c2)OCO3)CC1`, the “hERG current change (%, negative = inhibition) at 1uM” value is reported as 2.73%.

For `Cc1ccsc1C1Nc2ccc3ncccc3c2C2=C1C(=O)CCC2` (centres unmarked), the “hERG current change (%, negative = inhibition) at 1uM” value amounted to 0.626%.

As for `COc1ccc(CNCC(O)(c2ccccc2)c2ccc(F)cc2)cc1OC` (centres unmarked), the “hERG current change (%, negative = inhibition) at 1uM” value is -8.9%.
